Here are results for 120 sequences from the supplement of paper PMC10126150.

Sequences with one replicate were seen in a single cluster, so their values are uncertain.

For this data set, the system named is ATP. In words: switch fluorescence ratio, 500 uM ATP over buffer (Cy3 cluster intensity, sum of 5 cycles each) (fold (ratio)); higher = stronger signal-on switching upon ATP binding; sequences stand for … in TCGTCGGCAGCGTCAGATGTGTATAAGAGACAGTTTTTTTTTTTTTTTTTTTTTTTTT…TC. As to conditions: aptamer strand: ATP DNA aptamer (quencher-CACCTGGGGGAGTATTGCGGAGGAAGG + anchor), 100 nM annealed; ATP concentration: 500 uM; one replicate. An outline of the steps: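 After annealing to 100 nM quencher-labelled ATP aptamer, Cy3-labelled switching-strand clusters on a modified Illumina MiSeq flow-cell were imaged in selection buffer. A second image followed after 15 min with 500 uM ATP at 22 °C, and five such buffer/ATP cycles were done, each separated by NaOH stripping and re-annealing. The fluorescence ratio, averaged per switch-domain sequence, is summed target-cycle over summed buffer-cycle Cy3 intensity per cluster, with clusters outside 100-1000 RFU excluded.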
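Further: ATP exposure 15 min at 22 °C before imaging.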

With GATTAGTGAA, the switch fluorescence ratio was 0.959.
TTCCGTTCCT: the switch fluorescence ratio was 1.09.
For AAGGGATCGT, the switch fluorescence ratio came out at 0.98.
On to GCTAACTTGC, for which the switch fluorescence ratio came to 1.01.
In the case of ATACTTTTGT, the switch fluorescence ratio worked out at 1.01.
In the case of GCCGTCTACC it was 1.03; in that of CGCAGCTTGG, 1.55.
Turning to TGGCCAACAT, the switch fluorescence ratio was determined as 0.984.
In the case of CTATAACATT, the switch fluorescence ratio came out at 1.06.
Consider ACTGATTGTT, for which the switch fluorescence ratio came to 1.
In the case of AACCATGTGC it was 0.987.
With ATGTAAATTC, the switch fluorescence ratio is 1.01.
Turning to GATTTTCGTT, the switch fluorescence ratio is 1.01.
For the sequence AAAGCCCTGT, the switch fluorescence ratio came to 0.982.
In the case of GTGTACGGCA it was 1.07; in that of GTCGTAGAGG, 0.964.
As to ATGGCATATT, the switch fluorescence ratio is 1.01.
For AACAAGATAT, the switch fluorescence ratio worked out at 1.
As for GATGTGGATA, the switch fluorescence ratio is 1.02.
To GGACATTGGT belongs 1.02.
In the case of CGTGGGGTGA it was 1.04; in that of CTTGCGC, 1.02; in that of GCAAAGAAGG, 0.998.
GCCAGCTCAC: the switch fluorescence ratio was found to be 1.13.
As to TTTCAAGTCC, the switch fluorescence ratio amounted to 0.944.
Take CTACTTCGGT: the switch fluorescence ratio amounted to 0.985.
For the sequence TGAAGTTTGG, the switch fluorescence ratio turned out to be 0.983.
As for GACCTTGTTG, the switch fluorescence ratio stood at 1.02.
To CTTGGTGGCA belongs 1.01.
GGCGTTGTTG: the switch fluorescence ratio was found to be 0.987.
For the sequence GACGTACAGA, the switch fluorescence ratio came out at 1.67.
Regarding ACGGCTGACT, the switch fluorescence ratio is 0.992.
For the sequence AAAATGGTCT, the switch fluorescence ratio amounted to 1.01.
Take TTGTGGCTCG: the switch fluorescence ratio was determined as 1.06.
Regarding ACGGTCCCGG, the switch fluorescence ratio was 0.981.
For GCCGGGACTC, the switch fluorescence ratio came to 0.964.
Consider GAACGTGTAG, for which the switch fluorescence ratio is 1.01.
Regarding ACACATAGTC, the switch fluorescence ratio worked out at 1.03.
With AGTACGCCGC, the switch fluorescence ratio is 1.18.
Regarding GAACTTGGGT, the switch fluorescence ratio came to 1.05.
For ACACGAGCTA, the switch fluorescence ratio is 0.994.
With CATTACGGT, the switch fluorescence ratio stood at 1.04.
As to ATTGCCCTAG, the switch fluorescence ratio came out at 1.07.
As to GATTGTTTCT, the switch fluorescence ratio worked out at 0.974.
In the case of AACCCCACGC, the switch fluorescence ratio stood at 1.5.
ACGTGAATAA: the switch fluorescence ratio came out at 1.11.
On to GTTCAAATTT, for which the switch fluorescence ratio was found to be 0.996.
For the sequence CTTGCTGATA, the switch fluorescence ratio was determined as 1.07.
On to TTGTTTGAT, for which the switch fluorescence ratio was determined as 0.946.
In the case of AAGGGGAAG it was 1.03; in that of CATAAACGAG, 0.975.
With CTGAATAACG, the switch fluorescence ratio stood at 0.988.
As for CCATGAGGCG, the switch fluorescence ratio was 1.03.
In the case of GCCAATGCCT it was 1.01; in that of AAGAGGAAAG, 1.03; in that of GGCTGAGTTT, 0.961.
Take GGGCTTCGAC: the switch fluorescence ratio was determined as 0.997.
In the case of TGCGTCTTTT it was 0.966; in that of GACATCAGAC, 1.06; in that of TGTATTCTAT, 0.999.
Turning to GATATCTTCG, the switch fluorescence ratio was 1.03.
Take GTAAGCTCTC: the switch fluorescence ratio is 1.06.
In the case of TGTAGATGGT it was 0.976.
To GACACGGAGC belongs 1.12; to AGGAAATAGC, 0.987; to TAACTAATTC, 0.975.
Take CTTAGGCAGC: the switch fluorescence ratio amounted to 1.05.
For TTGCCACAGT, the switch fluorescence ratio stood at 1.03.
Regarding GGGTTACCAT, the switch fluorescence ratio came to 1.05.
Regarding AGGATTTCAT, the switch fluorescence ratio turned out to be 1.02.
In the case of GGCTGATGAG it was 1.01.
To AATTACGGTC belongs 0.958; to GAGAAGAGAA, 0.97; to ATTGACTGTT, 1.02.
With AGCGGCCATG, the switch fluorescence ratio was 0.996.
In the case of GGGACTCTA it was 1.01.
Regarding GGTAGAAGT, the switch fluorescence ratio was found to be 0.977.
To AAAGAGTTAG belongs 0.956.
For TTTCATCGGA, the switch fluorescence ratio amounted to 1.
Consider CCGTTCCGA, for which the switch fluorescence ratio is 1.05.
On to ACGCAATGTT, for which the switch fluorescence ratio turned out to be 3.05.
In the case of GCTTACTTGT it was 0.989.
To GATGTAG belongs 1.02; to CCCGGATTAA, 1.04; to GCCCATCTGA, 0.967.
On to TTGAGCTGCA, for which the switch fluorescence ratio is 1.02.
On to ACCATGTTGA, for which the switch fluorescence ratio turned out to be 0.953.
In the case of CACAGGACAC it was 1.08; in that of ACCGTGTGAA, 1.03.
As to TTTCGTGTTA, the switch fluorescence ratio was 0.978.
TGTAACGGGT: the switch fluorescence ratio was 1.02.
AAGATGTGGT: the switch fluorescence ratio came out at 0.978.
As to ATGTATTTCG, the switch fluorescence ratio turned out to be 0.967.
As to CTCTAGCCTT, the switch fluorescence ratio was 1.03.
Take CACAAGAGGT: the switch fluorescence ratio stood at 1.08.
In the case of TTCGCCATTT it was 1.04; in that of TTGAGGAAAT, 1.
Turning to CACAACCATT, the switch fluorescence ratio amounted to 1.03.
Take CTTAGCGATG: the switch fluorescence ratio came to 1.03.
Turning to ACCTCATGCA, the switch fluorescence ratio was 1.01.
As to ATGTACTCCC, the switch fluorescence ratio amounted to 1.88.
In the case of GGTGTTAGTT, the switch fluorescence ratio came to 0.965.
Regarding CGTAGTCTTG, the switch fluorescence ratio was found to be 0.957.
TCTGGCGGCG: the switch fluorescence ratio turned out to be 0.983.
As to CAGATAAAAC, the switch fluorescence ratio was 0.979.
Consider TCCCAGCTTT, for which the switch fluorescence ratio was 1.04.
For TTCAATTCTT, the switch fluorescence ratio amounted to 0.993.
Consider GATTAGGTTA, for which the switch fluorescence ratio came out at 0.995.
Turning to GGCCCATCTA, the switch fluorescence ratio was found to be 1.03.
Turning to AATTCCTATC, the switch fluorescence ratio was determined as 1.03.
For the sequence TCTTGTTAAG, the switch fluorescence ratio worked out at 1.
As to CGAATAATTC, the switch fluorescence ratio is 1.03.
In the case of ATAAAAAGG it was 1.02; in that of CGTGCAAGTC, 1.15; in that of CCAGGACGGT, 0.984.
GGGACGTCCA: the switch fluorescence ratio turned out to be 0.984.
As to CAGACAGGCT, the switch fluorescence ratio came to 0.964.
With GCCTATTCTC, the switch fluorescence ratio stood at 0.993.
As to GGAATTTGAA, the switch fluorescence ratio is 0.943.
For TATTTTGTCA, the switch fluorescence ratio is 1.01.
